# Data taken from the BET-seq Pho4 binding data (Le et al. 2018).
# The other results are listed elsewhere or left out. The energies were worked out here from pooled read counts, against the library average; single values are noisy.
# Target: T1, Pho4 (S. cerevisiae) (UniProt P07270)
# T1 sequence: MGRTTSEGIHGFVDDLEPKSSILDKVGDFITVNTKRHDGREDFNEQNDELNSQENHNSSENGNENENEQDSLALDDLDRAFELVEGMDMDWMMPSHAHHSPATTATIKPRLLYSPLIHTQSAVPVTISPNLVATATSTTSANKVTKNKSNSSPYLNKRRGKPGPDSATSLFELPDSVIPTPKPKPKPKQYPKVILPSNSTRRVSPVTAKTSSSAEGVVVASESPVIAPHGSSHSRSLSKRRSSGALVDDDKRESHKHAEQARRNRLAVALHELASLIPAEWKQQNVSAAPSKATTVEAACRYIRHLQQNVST
# Assay: relative binding free energy (BET-seq); higher = weaker binding
# Conditions: reference: library average
row,Sequence,relative binding free energy [kcal/mol]
1,ACTGACACGTGTAGTG,0.15
2,TGGGGCACGTGATTAG,0
3,CTCAGCACGTGGGCGG,-0.19
4,ATTGACACGTGAGTAA,0.25
5,GGTGCCACGTGTAAGG,0.14
6,TTTATCACGTGGCTTG,0.17
7,TTAACCACGTGTGTGT,-0.2
8,CTATTCACGTGTTATT,0.07
9,GGTTGCACGTGAGGTC,0.23
10,TTTGACACGTGACTGT,0.05
11,TGCCTCACGTGTGGTA,0.2
12,TTTTGCACGTGGACTG,-0.06
13,TGGCCCACGTGTCGGG,-0.1
14,TTTTACACGTGATCTG,0.23
15,AGCTTCACGTGTAGTA,0.33
16,GGCTGCACGTGTGGTG,0.05
17,GTCATCACGTGGTTAG,0.11
18,GCGTGCACGTGTGAAG,0.05
19,GCATGCACGTGGTGTT,-0.09
20,AGTAACACGTGATGTT,0.03
21,TGGATCACGTGATGGG,0.32
22,TTCGTCACGTGAGAGA,0.27
23,CGAGGCACGTGGGGCT,-0.22

row,Sequence,relative binding free energy [kcal/mol]
1,ATGCTCACGTGTAGGA,0.13
2,CTTAGCACGTGTGGTA,0.03
3,ATCTACACGTGTTGTG,0.14
4,GAATTCACGTGGATTA,0.32
5,AGGTGCACGTGTATCA,0.03
6,ACTCGCACGTGTAGGG,-0.07
7,TGGGACACGTGAGGTG,0.2
8,AGAATCACGTGTATTG,0.07
9,AGGGACACGTGCGTAT,-0.12
10,TGTTGCACGTGCCGGC,0.06
11,TGTCCCACGTGATGGT,0.02
12,TGTGGCACGTGACGGC,0.03
13,AAGAACACGTGGGGAG,-0.08
14,TGTGGCACGTGCGGGA,-0.12
15,CCTGTCACGTGGGGTT,-0.02
16,TATTTCACGTGGTACA,0.2
17,GATGCCACGTGATGTT,0.1
18,CTATCCACGTGTTGGG,0.14
19,CGGGCCACGTGAAGTT,0.41
20,TGGGGCACGTGAGTCC,0.19
21,CAGTGCACGTGTTTTT,-0.14
22,TGAAGCACGTGCGGAG,-0.09
23,TTCGCCACGTGGGGAG,-0.24

row,Sequence,relative binding free energy [kcal/mol]
1,TGGCTCACGTGTTGCG,0.2
2,GTTATCACGTGACTTT,0.28
3,CGGTGCACGTGGATAG,-0.06
4,TGCGTCACGTGGGGTC,-0.05
5,GGTTACACGTGGGAGG,0.12
6,TGAGACACGTGGTGTT,0.09
7,CCGGGCACGTGAGGGA,0.05
8,GGAGACACGTGTAAGG,0.07
9,TGTCTCACGTGGTTCA,0.12
10,CGGGACACGTGGGAGT,0.04
11,TTTGTCACGTGTCTAG,0.1
12,GGTGGCACGTGAGTCA,0.15
13,GGGGTCACGTGCAGGA,0.01
14,GGGTACACGTGGGCTT,0.01
15,TTTTACACGTGGAAAT,0.19
16,GAGAGCACGTGCGAGG,-0.12
17,AATGGCACGTGTTGAG,0
18,TGTGACACGTGGGTAC,-0.16
19,ATTGTCACGTGGTGGG,0.1
20,TTGTGCACGTGACGTG,0.15
21,ATTGTCACGTGAGTTG,0.18
22,ATTGGCACGTGTGTTA,-0.01
23,TGCGGCACGTGGAGGA,-0.06

row,Sequence,relative binding free energy [kcal/mol]
1,AGTTACACGTGAAGTT,0.35
2,ATGGGCACGTGGATTA,-0.09
3,GCATTCACGTGGGAGG,0.15
4,GAGAGCACGTGGTTTG,-0.12
5,TTAGGCACGTGGACGG,-0.09
6,TTGTGCACGTGAAGGC,0.22
7,GGTATCACGTGGTTGG,0.19
8,CCTGGCACGTGCTGGG,-0.19
9,TTTTTCACGTGATTTC,0.38
10,TCGGTCACGTGTGCTG,0.16
11,GGGAACACGTGAAGGC,0.38
12,GGGTACACGTGTGGGT,0.23
13,GTTTTCACGTGAAACG,0.43
14,CGTTGCACGTGGTTGA,-0.11
15,AAGAGCACGTGAGGAT,0.15
16,TCGAGCACGTGTGGGA,-0.2
17,GTGCACACGTGATGGG,0.05
18,AATGACACGTGTTGTG,0
19,TTCGACACGTGTGGCG,0.07
20,GTCTTCACGTGGCTGT,0.24
21,GTAAGCACGTGTGTCT,-0.03
22,TGGTCCACGTGATTGG,0.24
23,TTAGGCACGTGCTTAG,-0.1

row,Sequence,relative binding free energy [kcal/mol]
1,GCTGGCACGTGTTTTT,0.15
2,TTGTTCACGTGGCGAG,0.2
3,TGTAGCACGTGCGATG,-0.05
4,AATTCCACGTGGTGTG,-0.12
5,GTTGTCACGTGAGCCG,0.39
6,CTGTTCACGTGTGGAA,0.41
7,TAAGGCACGTGTTATG,-0.07
8,ATGGTCACGTGATGCA,0.24
9,GTTATCACGTGGCTTG,0.14
10,TGAGGCACGTGGTTGC,-0.13
11,TGACTCACGTGGTTGA,0.18
12,TATGGCACGTGGGTGG,-0.17
13,TGGGGCACGTGAATAT,0.2
14,GTTGTCACGTGTTCAG,0.12
15,TAGATCACGTGCGGCG,0.32
16,TTGTGCACGTGGGGGT,-0.07
17,TTCAACACGTGGAGTT,0.06
18,TTTTCCACGTGAAGGA,0.36
19,TAGTACACGTGGTCTG,-0.11
20,TCGCTCACGTGCGTGG,0.21
21,CTATTCACGTGGTATT,0.19
22,CAGGTCACGTGGCGTG,-0.08
23,GTAGACACGTGGTTAT,-0.07
